Test: label from the status in PepcDB records

Sequence | protein production
MAHGPRYRVPFRRRREGKTNYRKRLKLLKSGKPRLVVRKSLNHHIAQIIVYDPKGDRTLVSAHTRELIRDFGWKGHCGNTPSAYLLGLLIGYKAKKAGIEEAILDIGLHPPVRGSSIFAVLKGAIDAGLNVPHSPEIFPEDYRIRGEHIAEYARMLKEQDEDRFRRQFGGYLEKGLDPEKLPEHFEEVKARIIEKFESEGARE | failed
MDKNLMMPKRSRIDVKGNFANGPLQARPLVALLDGRDCSIEMPILKDVATVAFCDAQSTSEIHEKVLNEAVGALMWHTIILTKEDLEKFKALRIIVRIGSGTDNIDVKAAGELGIAVCNVPGYGVEEVADTTMCLILNLYRRTYWLANMVREGKKFTGPEQVREAAHGCARIRGDTLGLVGLGRIGSAVALRAKAFGFNVIFYDPYLPDGIDKSLGLTRVYTLQDLLFQSDCVSLHCTLNEHNHHLINEFTIKQMRPGAFLVNTARGGLVDDETLALALKQGRIRAAALDVHENEPYNVFQGALKDAPNLICTPHAAFFSDASATELREMAATEIRRAIVGNIPDVLRNCVNKEYFMRTPPAAAAGGVAAAVYPEGKLQMISNQEK | failed
MNSAAGFSHLDRRERVLKLGESFEKQPRCAFHTVRYDFKPASIDTSSEGYLEVGEGEQVTITLPNIEGSTPPVTVFKGSKKPYLKECILIINHDTGECRLEKLSSNITVKKTRVEGSSKIQYRKEQQQQQMWNSARTPNLVKHSPSEDKMSPASPIDDIERELKAEASLMDQMSSCDSSSDSKSSSSSSSEDSSSDSEDEDCKSSTSDTGNCVSGHPTMTQYRIPDIDASHNRFRDNSGLLMNTLRNDLQLSESGSDSDD | not failed
